Data reported in the supplement of paper PMC4967469.
IC50 is the fitted dose that halves viability relative to control wells, and lower means more sensitive; a fit beyond the top or the lowest dose is shown as a bound at that dose. AUC is the area under the same curve over the 256-fold range up to the top dose, as a fraction; it is 1 without any effect and falls as sensitivity rises. An inferred top dose comes from the curve model; the source does not state it.

compound: O=C1NC(=NCc2cccs2)S/C1=C\c1ccc2ncccc2c1 [RO-3306]; test: Viability of human cancer cell lines after 72 h of drug (GDSC screen); conditions: top dose 5 µM; top dose inferred
Procedure: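 Human cancer cell lines in 384-well plates, medium with 10% serum, drug for 72 h over a 256-fold dose range (nine 2-fold or five 4-fold steps up to the top dose). Adherent lines were fixed and stained with the nucleic acid dye Syto60, suspension lines read with resazurin; signal relative to control wells, capped at 0 and 100%. One two-parameter sigmoid per drug and line, fitted in a mixed model over all curves with the slope shared within a line.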

Cell Line | AUC | IC50 [µM]
HCC-366 (non-small cell lung carcinoma, adherent) | 0.975 | > 5
HCC-827 (lung adenocarcinoma, adherent) | 0.952 | > 5
HCT-15 (large intestine, adherent) | 0.948 | > 5
HD-MY-Z (Hodgkin lymphoma, adherent) | 0.908 | > 5
HDLM-2 (Hodgkin lymphoma, suspension) | 0.964 | > 5
HDQ-P1 (breast, adherent) | 0.984 | > 5
HEC-1 (endometrium, adherent) | 0.979 | > 5
HGC-27 (stomach, adherent) | 0.913 | > 5
HH (T-cell leukaemia, suspension) | 0.902 | > 5
HL-60 (acute myeloid leukaemia, suspension) | 0.968 | > 5
HLE (liver, adherent) | 0.952 | > 5
HN (head and neck, adherent) | 0.886 | 4.95
HO-1-u-1 (head and neck, adherent) | 0.988 | > 5
HOP-62 (lung adenocarcinoma, adherent) | 0.98 | > 5
HOS (osteosarcoma, adherent) | 0.959 | > 5
HSC-2 (head and neck, adherent) | 0.932 | > 5
HSC-39 (stomach, suspension) | 0.991 | > 5
HT55 (large intestine, adherent) | 0.99 | > 5
HT (B-cell lymphoma, suspension) | 0.989 | > 5
HT-3 (cervix, adherent) | 0.941 | > 5

Cell Line | AUC | IC50 [µM]
HT-29 (large intestine, adherent) | 0.977 | > 5
HT-115 (large intestine, adherent) | 0.991 | > 5
HT-144 (melanoma, adherent) | 0.977 | > 5
HT-1080 (fibrosarcoma, adherent) | 0.935 | > 5
HT-1197 (bladder, adherent) | 0.983 | > 5
HT-1376 (bladder, adherent) | 0.954 | > 5
HUTU-80 (digestive system, adherent) | 0.982 | > 5
HeLa (cervix, adherent) | 0.977 | > 5
Hep 3B2_1-7 (liver, adherent) | 0.921 | > 5
Hey (ovary, adherent) | 0.91 | > 5
Hs633T (fibrosarcoma, adherent) | 0.971 | > 5
Hs683 (glioma, adherent) | 0.812 | 2.72
Hs746T (stomach, adherent) | 0.967 | > 5
Hs766T (pancreas, adherent) | 0.942 | > 5
Hs939-T (melanoma, adherent) | 0.945 | > 5
Hs-578-T (breast, adherent) | 0.798 | 2.56
HuCCT1 (biliary tract, adherent) | 0.983 | > 5
HuH-7 (liver, adherent) | 0.958 | > 5
HuO9 (osteosarcoma, adherent) | 0.976 | > 5
